Experimental findings from PubChem BioAssay AID1963576 (National Center for Advancing Translational Sciences (NCATS), 2024) are described below.

Molecules are shown by their SMILES. The whole screen tested about 46,000 compounds, of which about 60 (0.1%) were called active. Inconclusive results (about 3%) are left out. Calls follow the shape of the dose curve; as a rule, active = well fitted inhibition curve with a large enough effect; inconclusive = small, poorly fitted or top-dose-only effect; inactive = no such curve, though single readings can be large or run the other way. Some of the results follow.

The experiment in a line: Primary qHTS assay for Inhibitors of ovarian cancer metastasis using an organotypic tumor microenvironment (TME) model. Also: nearly all actives have a fitted effect of over 65% in size.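 As to activity change, negative = inhibition: plate controls were DMSO wells for no effect and tomatine positive control wells for full effect.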 As to conditions: SKOV3ip1-GFP adhesion/invasion on 3D omental model, fluorescence; series mostly up to 45.8 µM; activity change, negative = inhibition: at the top concentration. In outline:
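qHTS, 4-pt dose (0.36-46 umol/L); SKOV3ip1-GFP, 1,200 cells/well, no FBS; primary omental fibroblast/mesothelial co-culture 48 h pre-grown; 2 h RT + 16 h 37 C; PBS wash, 4% PFA; GFP count 488/509 nm.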
For orientation: Quantitative high-throughput screening tests each substance at several concentrations.
Consider `CCc1nn(CCCC(=O)N2CCN(c3ccc(OC)cc3)CC2)c(=O)c2cc3occc3n12`, for which the compound was called inactive.
In the case of `Cc1ccc(CCNC(=O)C2CC(=O)N(CCc3ccccc3)C2)cc1` (stereo unspecified), the “activity change, negative = inhibition” value is inactive: 8.48%.
On to `Cc1ccc(C(=O)Nc2cccc(C(F)(F)F)c2)cc1Nc1nc(-c2cccnc2)nc2c1cnn2C`, for which the “activity change, negative = inhibition” value is inactive: -31.1%.
On the same count and under the same terms, under `Cn1cc(C(=O)NCCc2ccc(Cl)cc2)c(=O)c2cc(S(=O)(=O)N3CCOCC3)ccc21` stands inactive: 1.56%.
Same read-out and setting: under `COc1ccc(CNC(=O)CCCc2nnc3n(CCC(C)C)c(=O)c4sccc4n23)cc1` stands inactive: 2.12%; under `O=c1[nH]c(C2CCCN(S(=O)(=O)c3ccccc3Cl)C2)nc2c1nnn2Cc1ccc(OC(F)(F)F)cc1` (stereo unspecified), inactive: 4.64%.
Same read-out and setting: under `O=C(Nc1cccc(Cl)c1)c1cc(-c2ccccc2)on1` stands inactive: 5.37%; under `O=C(Nc1nnc(S(=O)(=O)N2CCCCCC2)s1)c1cccc(Br)c1`, inactive: 8.93%; under `Cc1noc(-c2ccc(CSCCC(=O)O)cc2)c1NC(=O)OC(C)c1ccccc1Cl` (stereo unspecified), inactive: -19.7%.
In the case of `CCOc1ccc(Nc2ncnc3c2nc2n3CCCCC2)cc1`, the call was inactive.
`Cc1cccc(N2CCN(C(=O)Cn3ncc4c3-c3ccccc3OC4)CC2)c1C`: the “activity change, negative = inhibition” value is inactive: 0.851%.
On to `COc1ccc(NC(=O)C2CCC(CNS(=O)(=O)c3ccc4c(c3)C(C)(C)C(=O)N4C)CC2)cc1` (stereo unspecified), for which the result was inactive.
Turning to `CCc1nnc(SCc2ccc(F)cc2Cl)c2cc3sc(C)cc3n12`, the “activity change, negative = inhibition” value was inactive: 9.34%.
With `COc1ccc(CNCCCSc2nnnn2C)c(OC)c1`, the “activity change, negative = inhibition” value was inactive: -1.24%.
In the case of `CC(=O)c1ccc(NC(=O)c2nc(-c3ccccc3)n(-c3ccccc3Cl)n2)cc1`, the “activity change, negative = inhibition” value is inactive: -8.03%.
The same measure, in the same setting: next, `Clc1cccc(N2CCN(c3c4c(nc5nncn35)CCC4)CC2)c1`: inactive: -4.71%; `Cn1cnc(S(=O)(=O)N2CCC(C(=O)Nc3ccc(C#N)cc3)CC2)c1`: inactive: 15.8%.
In the case of `CCOC(=O)N1c2ccc(C(F)(F)F)cc2[C@@H](N(Cc2cc(C(F)(F)F)cc(C(F)(F)F)c2)C(=O)OC)C[C@H]1CC`, the “activity change, negative = inhibition” value is inactive: 4.48%.
On the same count and under the same terms, under `CCOc1ccc(C(=O)Nc2onc3c2CCCC3)cc1` stands inactive: 0.872%; under `O=C(COc1ccccc1)Nc1ccc2nc(SCC(=O)N3CCc4ccccc43)sc2c1`, inactive: 0.205%.
Same read-out and setting: under `N#Cc1ccccc1Cn1c(SCC(=O)Nc2ccc(F)cc2)nc2ccccc21` stands inactive: 15.5%; under `CCOc1ccc(CNC(=O)C2CCN(S(=O)(=O)c3ccc4c(ccn4C)c3)CC2)cc1`, inactive: 2.96%.
`Cc1nn(CC(=O)NCC(C)c2ccccc2)c(=O)c2cc3ccccc3n12` (stereo unspecified): the “activity change, negative = inhibition” value was inactive: 23.2%.
With `CCOC(=O)c1ccccc1NC(=O)c1ccc2c(Cl)c3c(nc2c1)CCC3`, the compound was classed as inactive.
Consider `COc1cccc(CNC(=O)CCn2c(=O)c3cccn3c3cccnc32)c1OC`, for which the “activity change, negative = inhibition” value was inactive: -14.7%.
For the compound `COc1ccc(N(C)C(=O)c2nc(-c3cccc(F)c3)n3c2CCCCC3)c(OC)c1`, the “activity change, negative = inhibition” value is inactive: -0.0494%.
